Experimental findings from paper PMC6303091 are described below.

Protein sequences, listed by entry. Tags and fused reporters are not part of them.
UniProt Q9SV55: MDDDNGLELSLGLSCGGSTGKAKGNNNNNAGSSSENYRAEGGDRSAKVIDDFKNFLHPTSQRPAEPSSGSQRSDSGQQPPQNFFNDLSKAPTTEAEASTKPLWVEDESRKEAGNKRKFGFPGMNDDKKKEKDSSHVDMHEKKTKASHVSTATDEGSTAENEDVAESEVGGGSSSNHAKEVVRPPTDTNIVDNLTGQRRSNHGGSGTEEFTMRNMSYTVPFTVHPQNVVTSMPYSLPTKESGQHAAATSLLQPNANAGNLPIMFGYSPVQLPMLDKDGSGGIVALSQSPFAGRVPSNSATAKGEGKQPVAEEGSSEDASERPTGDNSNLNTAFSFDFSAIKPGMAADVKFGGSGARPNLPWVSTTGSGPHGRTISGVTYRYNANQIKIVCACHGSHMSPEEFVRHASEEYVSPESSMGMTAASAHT
UniProt P93830: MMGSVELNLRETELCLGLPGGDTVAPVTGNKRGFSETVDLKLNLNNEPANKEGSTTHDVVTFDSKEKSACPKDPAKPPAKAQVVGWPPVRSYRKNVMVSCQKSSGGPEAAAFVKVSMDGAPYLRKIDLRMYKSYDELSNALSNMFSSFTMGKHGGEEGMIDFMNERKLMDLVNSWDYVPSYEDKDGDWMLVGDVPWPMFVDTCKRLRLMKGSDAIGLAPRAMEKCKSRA
UniProt Q8GY55: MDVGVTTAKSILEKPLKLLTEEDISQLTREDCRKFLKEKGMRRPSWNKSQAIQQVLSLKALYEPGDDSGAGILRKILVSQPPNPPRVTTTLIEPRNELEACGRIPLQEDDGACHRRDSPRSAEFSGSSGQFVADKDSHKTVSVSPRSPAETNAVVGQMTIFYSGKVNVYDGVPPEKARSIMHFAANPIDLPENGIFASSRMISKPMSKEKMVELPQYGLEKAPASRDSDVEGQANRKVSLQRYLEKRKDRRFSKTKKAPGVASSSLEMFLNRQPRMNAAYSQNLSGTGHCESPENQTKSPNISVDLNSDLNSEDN
UniProt Q7XA73: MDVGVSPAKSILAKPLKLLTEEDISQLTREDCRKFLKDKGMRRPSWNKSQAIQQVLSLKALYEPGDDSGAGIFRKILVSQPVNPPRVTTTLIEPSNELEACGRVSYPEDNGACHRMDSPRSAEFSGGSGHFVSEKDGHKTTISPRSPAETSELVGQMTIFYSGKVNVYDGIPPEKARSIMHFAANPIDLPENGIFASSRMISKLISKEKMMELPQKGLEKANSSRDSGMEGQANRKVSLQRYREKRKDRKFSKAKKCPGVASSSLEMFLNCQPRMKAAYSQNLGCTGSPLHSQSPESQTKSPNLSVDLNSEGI

Results are given in words; binding and its absence hold for the method and conditions named. Some binding calls cover weakened binding; strength is not graded here.

For experiment [1], the target named is T1, TOPLESS amino-terminal region (TPL-N), bait (A. thaliana) (UniProt Q94AI7).
T1 sequence: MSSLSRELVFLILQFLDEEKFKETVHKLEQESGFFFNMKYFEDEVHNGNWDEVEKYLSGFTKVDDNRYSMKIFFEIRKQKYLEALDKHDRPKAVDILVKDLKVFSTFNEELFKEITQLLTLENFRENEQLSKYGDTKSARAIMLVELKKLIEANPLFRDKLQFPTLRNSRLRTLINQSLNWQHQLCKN
In words: two-hybrid; binary Y2H, GAL4 system, S. cerevisiae PJ69-4α co-transformed with bait (GAL4 DBD) and prey (GAL4 AD); 30°C; growth on SD-Leu-Trp-His against SD-Leu-Trp.

In experiment [2] the target is Novel Interactor of JAZ (NINJA), bait (A. thaliana) (UniProt Q9SV55). Kind of experiment: two-hybrid; library screen (Y2H-seq): PJ69-4α bait strain transformed with the A. thaliana AT7 cDNA prey library; SD-Leu-Trp-His + 5 mM 3-AT; preys identified by Sanger sequencing of colonies, qPCR and NGS of pooled prey inserts, against an EMPTY bait screen or the library. In general terms: In qPCR the cycle at which signal appears reflects the starting amount.

Experiment [3] shares this target. Kind of experiment: two-hybrid; binary Y2H, GAL4 system, S. cerevisiae PJ69-4α co-transformed with bait (GAL4 DBD) and prey (GAL4 AD); 30°C; growth on SD-Leu-Trp-His against SD-Leu-Trp.

Turning to “auxin/indole-3-acetic acid 17 (IAA17), cloned prey (from UniProt P93830 1-229)”, the binding entry in experiment [1] was “binds”.

In the case of “A. thaliana protein PEAPOD2 (PPD2), library prey (from UniProt Q8GY55 1-315)”, in experiment [2], the binding entry is given as “binds”. On to NINJA, prey (from UniProt Q9SV55 1-425), for which the binding result in experiment [1] is “binds”.

In the case of “PPD1 (AT4G14713), library prey (from UniProt Q7XA73 1-313)”, in experiment [2], the binding entry is given as “binds”.

B1: JAZ10 (AT5G13220), library prey (protein, UniProt Q93ZM9 1-197)
chain: MSKATIELDFLGLEKKQTNNAPKPKFQKFLDRRRSFRDIQGAISKIDPEIIKSLLASTGNNSDSSAKSRSVPSTPREDQPQIPISPVHASLARSSTELVSGTVPMTIFYNGSVSVFQVSRNKAGEIMKVANEAASKKDESSMETDLSVILPTTLRPKLFGQNLEGDLPIARRKSLQRFLEKRKERLVSTSPYYPTSA
For the molecule B1, the binding entry in experiment [2] is on record as “binds”.

B2: JAZ5 (AT1G17380), library prey (protein, UniProt Q9LDU5 1-274)
chain: MSSSNENAKAQAPEKSDFTRRCSLLSRYLKEKGSFGNIDLGLYRKPDSSLALPGKFDPPGKQNAMHKAGHSKGEPSTSSGGKVKDVADLSESQPGSSQLTIFFGGKVLVYNEFPVDKAKEIMEVAKQAKPVTEINIQTPINDENNNNKSSMVLPDLNEPTDNNHLTKEQQQQQEQNQIVERIARRASLHRFFAKRKDRAVARAPYQVNQNAGHHRYPPKPEIVTGQPLEAGQSSQRPPDNAIGQTMAHIKSDGDKDDIMKIEEGQSSKDLDLRL
Turning to B2, the binding entry in experiment [2] was “binds”.

B3: AT3G06850, cloned prey (protein, UniProt Q9M7Z1 1-483)
chain: MIARRIWRSHRFLRPFSSSSVCSPPFRVPEYLSQSSSSPASRPFFVHPPTLMKWGGGSRSWFSNEAMATDSNSGLIDVPLAQTGEGIAECELLKWFVKEGDSVEEFQPLCEVQSDKATIEITSRFKGKVALISHSPGDIIKVGETLVRLAVEDSQDSLLTTDSSEIVTLGGSKQGTENLLGALSTPAVRNLAKDLGIDINVITGTGKDGRVLKEDVLRFSDQKGFVTDSVSSEHAVIGGDSVSTKASSNFEDKTVPLRGFSRAMVKTMTMATSVPHFHFVEEINCDSLVELKQFFKENNTDSTIKHTFLPTLIKSLSMALTKYPFVNSCFNAESLEIILKGSHNIGVAMATEHGLVVPNIKNVQSLSLLEITKELSRLQHLAANNKLNPEDVTGGTITLSNIGAIGGKFGSPLLNLPEVAIIALGRIEKVPKFSKEGTVYPASIMMVNIAADHRVLDGATVARFCCQWKEYVEKPELLMLQMR
With B3, the binding result in experiment [3] was “no binding”.
